# Laboratory results reported in the supplement of paper PMC5499739.
# The full ranking holds about 16,000 sequences; the median of “Z-score” is about -0.37, and the highest 2% start at about 3.2. The list shows a part of the results.
# Tested on: RBM10 RRM1-ZnF (GST-tagged construct)
# Test: RNAcompete 7-mer binding Z-score; higher = stronger binding preference
# In short: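 Each heptamer motif was given a one-sided Z-score for enrichment across the probes that contained it. GST-tagged RBM10 constructs (20 pmol) were combined with 1.5 nmol of a designed pool of 241 399 RNAs of up to 41 nt, transcribed from microarray-derived DNA templates. Binding took place in 1 ml Hepes pH 7.8 buffer containing KCl, NaCl, glycerol, DTT, BSA and glutathione Sepharose beads for 30 min at 4°C. After four 2-min washes at 4°C, bound RNA was identified by microarray hybridisation.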
row,Sequence,RNAcompete 7-mer binding Z-score
1,UAGAGUG,1.08
2,GACGGUC,-0.217
3,AGACUGC,-0.854
4,UGAUUAG,0.115
5,CUCUUUU,-0.902
6,AUUACAC,-0.655
7,AGACACG,-0.331
8,UACACGG,0.345
9,AACAUCC,-0.707
10,GAUGAAC,0.29
11,UUCACAA,-0.665
12,CCGCAUA,-0.717
13,GUUGAGU,0.602
14,CGCUAGG,0.491
15,GAACUCG,-0.383
16,UGGCACA,0.257
17,GCUUUUC,-0.837
18,GCCGCUA,-0.591
19,AUACUCA,-0.688
20,AGGUCGC,0.0755
21,GGAUUGA,1.73
22,CUCCAAU,-0.646
23,GGCCGGC,-0.23
24,GCGAAAA,0.0528

row,Sequence,RNAcompete 7-mer binding Z-score
1,CAAGUCC,-0.675
2,GCGGGUG,3.17
3,GACCGCC,-0.652
4,GAGCAUA,0.14
5,AUGUGUC,-0.145
6,UAGCAGU,-0.0967
7,AAACACA,-0.327
8,UCGUCCC,-0.763
9,GUGCCCG,-0.152
10,GCACUAC,-0.0967
11,AUUUGUA,-0.444
12,GCCUGUG,-0.363
13,UCUCGGA,-0.344
14,UGAGGAC,0.959
15,UGCGUUA,-0.175
16,CAACAAC,-0.633
17,GCUAUUU,-0.717
18,UGUUGAG,0.716
19,AACCAAA,-0.636
20,CUCAGUA,-0.74
21,GCCCACG,-0.389
22,CAAUUAA,-0.633
23,GCUACAC,-0.158
24,GAUUUCG,-0.565

row,Sequence,RNAcompete 7-mer binding Z-score
1,AAUACCC,-0.613
2,GUGUGAC,0.543
3,AAUUUUC,-0.863
4,CGUGGCC,-0.35
5,ACCCUAG,-0.678
6,GCUCGAC,-0.467
7,CGGACGA,0.485
8,AUGAACG,0.303
9,UUGGUAA,0.615
10,CCAAGAC,-0.646
11,CGCACGU,-0.552
12,GCUAAAC,-0.36
13,UCCGACA,-0.769
14,GAUAGAU,0.407
15,AGCAAAU,-0.435
16,GCCGGCC,-0.548
17,AAGCGUC,-0.441
18,AGAUAGU,0.0853
19,AUAACGC,-0.691
20,UCGCCCG,-0.441
21,AGCCUCU,-0.831
22,AAAAAGU,0.043
23,AAUUUUU,-0.743
24,GUCCCAG,-0.301

row,Sequence,RNAcompete 7-mer binding Z-score
1,CCUCUGU,-0.769
2,UUCAGAA,-0.555
3,UUAUCCA,-0.668
4,GCUCAAG,-0.386
5,AUGAACC,-0.467
6,GUUUUCG,0.0268
7,CCACUUU,-0.815
8,UAUCGUC,-0.688
9,UGAAUCG,0.0463
10,GUCGUUA,-0.194
11,GGUGGGU,3.78
12,GGGGCUA,1.92
13,UCUCUCC,-0.805
14,CGGUCCU,-0.574
15,CCGAUCU,-0.954
16,GCAUGAC,-0.262
17,CAGGACG,1.06
18,CCGCUGU,-0.707
19,GCUCCAA,-0.409
20,CGCCUAG,-0.565
21,CAUUCCU,-0.854
22,UGCAAUG,0.0235
23,GUCUUAU,-0.818
24,UAUCUGU,-0.636

row,Sequence,RNAcompete 7-mer binding Z-score
1,UCCCUUA,-0.86
2,AUAGCCU,-0.724
3,CACUAUG,-0.357
4,CUGACGU,-0.48
5,AAGAUUG,0.111
6,AGGAUCA,0.352
7,AGACAAU,-0.318
8,GUAGGGU,4.46
9,GGUUUAC,0.264
10,GUAUUAU,-0.0999
11,AAUCGGG,1.73
12,CUUCAGC,-0.763
13,CGCAUCG,-0.412
14,AUACACC,-0.795
15,ACGGAAA,0.927
16,GGUUGCA,0.946
17,AUCGUGG,0.982
18,CUCUCGC,-0.668
19,UGGAGAC,1.72
20,GAUGUGG,3.15
21,UAGCUCA,-0.581
